Results reported in PMC13144346.
No constants are given. Whether binding was seen depends on the method and setting. In cells and extracts the contact can be indirect. Some binding calls cover weakened binding; strength is not graded here.

By UniProt entry, the sequences of proteins in these tests, tags left out. Where a name states a change or a piece, a line headed by the entry shows the natural chain unless it says otherwise. Residues count along the entry.
UniProt Q7L804: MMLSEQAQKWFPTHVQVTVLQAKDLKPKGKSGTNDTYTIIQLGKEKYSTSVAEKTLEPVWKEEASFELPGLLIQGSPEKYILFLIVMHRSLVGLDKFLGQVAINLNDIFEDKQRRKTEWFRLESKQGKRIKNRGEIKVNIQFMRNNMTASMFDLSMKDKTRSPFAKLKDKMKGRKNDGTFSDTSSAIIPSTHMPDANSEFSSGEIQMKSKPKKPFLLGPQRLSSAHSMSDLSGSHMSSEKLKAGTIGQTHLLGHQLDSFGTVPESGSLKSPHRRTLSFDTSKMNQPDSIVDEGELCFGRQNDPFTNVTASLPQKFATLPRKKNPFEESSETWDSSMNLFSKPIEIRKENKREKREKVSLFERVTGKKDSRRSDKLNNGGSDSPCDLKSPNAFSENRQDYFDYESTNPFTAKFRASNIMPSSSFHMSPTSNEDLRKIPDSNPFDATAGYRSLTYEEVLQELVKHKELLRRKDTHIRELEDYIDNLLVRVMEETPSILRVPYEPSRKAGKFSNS
Flag-FIP2_(1-192): residues 1-192 of Q7L804
Flag-FIP2_(193-512): residues 193-512 of Q7L804
UniProt Q96P20: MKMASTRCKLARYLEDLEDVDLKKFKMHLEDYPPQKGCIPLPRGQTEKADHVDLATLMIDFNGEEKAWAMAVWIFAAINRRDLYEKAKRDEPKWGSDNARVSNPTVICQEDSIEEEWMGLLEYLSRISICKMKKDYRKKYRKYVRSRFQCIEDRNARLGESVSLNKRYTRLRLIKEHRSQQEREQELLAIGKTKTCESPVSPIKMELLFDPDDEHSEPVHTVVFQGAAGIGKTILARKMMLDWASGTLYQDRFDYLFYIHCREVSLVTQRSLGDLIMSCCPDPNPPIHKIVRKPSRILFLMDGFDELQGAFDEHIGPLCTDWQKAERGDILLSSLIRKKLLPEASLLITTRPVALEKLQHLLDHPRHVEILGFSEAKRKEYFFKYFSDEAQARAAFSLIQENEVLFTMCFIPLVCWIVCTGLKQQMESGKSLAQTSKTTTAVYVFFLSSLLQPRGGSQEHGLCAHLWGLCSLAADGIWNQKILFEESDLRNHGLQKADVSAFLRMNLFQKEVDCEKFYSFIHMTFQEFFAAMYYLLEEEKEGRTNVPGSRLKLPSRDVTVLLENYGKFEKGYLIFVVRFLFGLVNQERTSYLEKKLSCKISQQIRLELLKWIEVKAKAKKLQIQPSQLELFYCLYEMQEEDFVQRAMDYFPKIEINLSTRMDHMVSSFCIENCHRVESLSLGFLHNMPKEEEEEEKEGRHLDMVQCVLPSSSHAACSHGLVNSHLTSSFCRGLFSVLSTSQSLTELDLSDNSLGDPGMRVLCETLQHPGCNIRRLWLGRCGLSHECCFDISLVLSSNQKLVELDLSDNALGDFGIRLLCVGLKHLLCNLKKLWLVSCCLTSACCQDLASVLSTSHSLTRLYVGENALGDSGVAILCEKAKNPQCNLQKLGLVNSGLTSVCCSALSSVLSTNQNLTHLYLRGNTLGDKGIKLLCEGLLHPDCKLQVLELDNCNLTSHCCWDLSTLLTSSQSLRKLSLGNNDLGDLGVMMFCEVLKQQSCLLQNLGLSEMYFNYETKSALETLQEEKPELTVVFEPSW
Flag-NLRP3_(132-1036): residues 132-1036 of Q96P20
UniProt P62491: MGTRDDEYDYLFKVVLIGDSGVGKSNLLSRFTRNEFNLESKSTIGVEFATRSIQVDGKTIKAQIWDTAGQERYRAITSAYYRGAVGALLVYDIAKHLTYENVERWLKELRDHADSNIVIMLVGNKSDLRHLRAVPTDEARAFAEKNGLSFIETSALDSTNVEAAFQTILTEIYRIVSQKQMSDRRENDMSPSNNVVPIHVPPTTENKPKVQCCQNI
UniProt Q9ULZ3: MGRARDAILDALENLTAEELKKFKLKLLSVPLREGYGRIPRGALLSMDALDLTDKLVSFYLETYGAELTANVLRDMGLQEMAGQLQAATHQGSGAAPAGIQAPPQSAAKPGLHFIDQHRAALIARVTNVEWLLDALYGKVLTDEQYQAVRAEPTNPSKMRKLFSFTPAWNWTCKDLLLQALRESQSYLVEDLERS

Tests used:
Test in all cases: co-IP; HEK293T cells co-transfected for 48 h (24 h for Fig. 5C, E), with or without ECFP-Rab11; lysis in 150 mM NaCl, 50 mM Tris-HCl pH 8.0, 1 mM EDTA, 1% NP-40; Flag-tagged bait on anti-Flag (M2) affinity agarose, 4 °C, 3 h or overnight; four washes; immunoblot
[1] = target: Flag-FIP2 (full-length FIP2) (human) (UniProt Q7L804)
[2] = target: Flag-NLRP3 (full length human NLRP3) (human) (UniProt Q96P20)
[3] = target: Flag-NLRP3_(132-1036) (human) (UniProt Q96P20)
[4] = target: Flag-FIP2_(193-512) (human) (UniProt Q7L804)
[5] = target: Flag-FIP2_(1-192) (human) (UniProt Q7L804)

Substance	binding [1]	binding [2]	also measured
ECFP-Rab11 (hsRab11a in pECFP-C1) (from UniProt P62491 1-216)	binds	–	–
HA-ASC (hsASC-HA in pCI) (from UniProt Q9ULZ3 1-195)	no binding	–	–
EGFP-FIP2 (EGFP-Rab11FIP2) (from UniProt Q7L804 1-512)	–	binds	binding [3]: no binding
EGFP-FIP2_(I481E) (from UniProt Q7L804 1-512)	–	no binding	–
EGFP-NLRP3 (hsNLRP3 in pEGFP-C2) (from UniProt Q96P20 1-1036)	binds	–	binding [4]: no binding; binding [5]: binds
